Assay results published in patent US20190381086A1 (Scripps Research, published 2019).

Experiments:
Assay in all cases: His-tag pull-down
[1] = molecular target: T1, His-tagged human SerRS (seryl-tRNA synthetase) (human, UniProt P49591)
T1 construct: not shown: His tag

[2] = molecular target: T2, His-tagged human TrpRS (tryptophanyl-tRNA synthetase) (human, UniProt P23381 1-471, limits assumed)
T2 construct: not shown: His tag
T2 sequence (looked up): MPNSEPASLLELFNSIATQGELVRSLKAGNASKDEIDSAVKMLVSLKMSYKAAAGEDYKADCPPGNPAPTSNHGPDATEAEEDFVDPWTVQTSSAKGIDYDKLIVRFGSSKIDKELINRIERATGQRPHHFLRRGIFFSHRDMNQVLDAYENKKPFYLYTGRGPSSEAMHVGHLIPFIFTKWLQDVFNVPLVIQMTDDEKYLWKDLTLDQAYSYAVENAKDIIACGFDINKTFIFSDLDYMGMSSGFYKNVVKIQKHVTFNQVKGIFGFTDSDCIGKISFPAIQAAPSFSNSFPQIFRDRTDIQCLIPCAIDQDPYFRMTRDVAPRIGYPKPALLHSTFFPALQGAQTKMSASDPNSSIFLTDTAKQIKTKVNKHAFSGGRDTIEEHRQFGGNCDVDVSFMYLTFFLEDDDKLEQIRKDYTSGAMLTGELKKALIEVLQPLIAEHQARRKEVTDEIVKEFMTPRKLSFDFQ

[3] = molecular target: T3, His-tagged full-length human GlyRS (glycyl-tRNA synthetase) (human, UniProt P41250 55-739)
T3 construct: also called His-tagged GlyRS; purified human GlyRS protein; not shown: His tag
T3 sequence: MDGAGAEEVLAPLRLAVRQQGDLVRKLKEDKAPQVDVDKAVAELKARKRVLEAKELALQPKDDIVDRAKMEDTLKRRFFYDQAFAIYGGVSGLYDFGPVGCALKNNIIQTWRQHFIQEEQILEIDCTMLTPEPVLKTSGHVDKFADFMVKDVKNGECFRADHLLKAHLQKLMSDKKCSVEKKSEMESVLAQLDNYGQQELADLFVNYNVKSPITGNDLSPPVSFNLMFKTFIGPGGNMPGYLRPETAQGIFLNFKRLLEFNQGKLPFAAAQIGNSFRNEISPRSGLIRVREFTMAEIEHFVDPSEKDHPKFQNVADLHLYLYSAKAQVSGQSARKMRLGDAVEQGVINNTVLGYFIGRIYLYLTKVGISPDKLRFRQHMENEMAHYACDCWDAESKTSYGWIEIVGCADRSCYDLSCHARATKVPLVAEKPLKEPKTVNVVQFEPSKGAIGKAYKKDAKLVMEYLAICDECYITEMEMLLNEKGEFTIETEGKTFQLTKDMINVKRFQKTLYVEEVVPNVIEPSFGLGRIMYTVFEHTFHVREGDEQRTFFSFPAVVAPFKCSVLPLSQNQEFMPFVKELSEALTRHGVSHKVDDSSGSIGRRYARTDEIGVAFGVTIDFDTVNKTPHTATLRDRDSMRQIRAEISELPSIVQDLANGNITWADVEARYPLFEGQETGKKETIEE

binding result [1]: no binding
binding result [2]: no binding
binding result [3]: no binding
B1: SUMO1 (other)
chain: not shown
notes: Bought protein
